# Measured values from PubChem BioAssay AID1460 (National Center for Advancing Translational Sciences (NCATS), 2008).
# Screen size: about 270,000 compounds; about 5,800 (2.1%) were called active. The inconclusive results got no clear call from the source; some entries with a clear call stand among them for comparison. Calls come from the whole dose curve; as a rule, active = well fitted inhibition curve with a large enough effect; inconclusive = small, poorly fitted or top-dose-only effect; inactive = flat fitted curve, though single readings scatter. A potency beside an inconclusive call is a rough fit, not a confirmed value.
# Molecular target: Microtubule-associated protein tau (Homo sapiens) (UniProt P10636)
# Sequence of UniProt P10636 (P10636 whole entry, looked up): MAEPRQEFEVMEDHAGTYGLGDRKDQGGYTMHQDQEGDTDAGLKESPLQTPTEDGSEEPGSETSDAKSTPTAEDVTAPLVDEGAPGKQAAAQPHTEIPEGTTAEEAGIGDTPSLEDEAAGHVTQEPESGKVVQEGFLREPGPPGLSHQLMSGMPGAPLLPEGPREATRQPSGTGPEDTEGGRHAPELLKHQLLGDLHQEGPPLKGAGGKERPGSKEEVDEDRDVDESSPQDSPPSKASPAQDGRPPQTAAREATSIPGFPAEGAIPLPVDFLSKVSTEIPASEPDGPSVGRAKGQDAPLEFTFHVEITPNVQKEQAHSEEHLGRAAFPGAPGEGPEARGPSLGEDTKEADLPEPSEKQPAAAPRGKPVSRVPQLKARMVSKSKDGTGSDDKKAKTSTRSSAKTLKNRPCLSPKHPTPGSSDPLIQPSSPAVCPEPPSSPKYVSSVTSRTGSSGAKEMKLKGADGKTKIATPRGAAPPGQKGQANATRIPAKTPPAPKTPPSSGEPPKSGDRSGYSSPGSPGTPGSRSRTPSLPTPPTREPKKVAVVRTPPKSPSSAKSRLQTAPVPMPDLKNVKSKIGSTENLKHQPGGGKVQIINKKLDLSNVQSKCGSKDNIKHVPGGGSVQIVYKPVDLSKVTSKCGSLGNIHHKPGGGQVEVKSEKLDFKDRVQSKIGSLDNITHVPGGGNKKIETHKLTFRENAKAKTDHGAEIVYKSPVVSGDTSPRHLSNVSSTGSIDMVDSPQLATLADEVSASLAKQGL
# Experiment: qHTS for Inhibitors of Tau Fibril Formation, Thioflavin T Binding; note: nearly all actives have a fitted effect of over 55% in size
# Details: recombinant tau K18 P301L (four-repeat tau fragment), heparin-induced fibrillization, ThT fluorescence; series mostly up to 57.4 µM
# Outline: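 Heparin-induced (20 uM) aggregation of recombinant human K18 P301L tau, 15 uM unlabeled with 0.24 uM labeled, pH 7 acetate buffer, 6 hr at 37 C with compound. Fibrils quantified by 30 uM ThT fluorescence after 1 hr ambient incubation.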
# % is set by controls: 0 for no effect and ±100 for the full control effect; potency is the fitted concentration of half-maximal effect; tags give direction and shape of the fitted curve.
SMILES,Potency,"activity, negative = inhibition"
CC1CCN(C(=O)CSc2nncn2-c2ccccn2)CC1,inactive,
O=C(c1ccco1)N1CCN(C(=O)c2cc(-c3ccccn3)nc3ccc(Cl)cc23)CC1,"inconclusive: 31.6 µM [inhibitor, partial curve]",
C=CCN(C(=O)Nc1ccc2oc(C)nc2c1)c1ccccc1,"inconclusive: 28.2 µM [inhibitor, single point]",
O=C(Nc1cc(S(=O)(=O)N2CCOCC2)ccc1N1CCCC1)c1ccc2c(c1)S(=O)(=O)c1ccccc1C2=O,active: 25.1 µM,
Cc1ccccc1OCCNc1ccc(C(F)(F)F)cc1[N+](=O)[O-],"inconclusive: 14.1 µM [inhibitor, partial curve]",
COc1cc(O)c(C(=O)/C=C\c2ccc3c(c2)OCO3)c(OC)c1,"inconclusive: 5.01 µM [inhibitor, partial curve]",
O=C1c2cccc3c([N+](=O)[O-])ccc(c23)C(=O)N1c1nccs1,"inconclusive: 10 µM [inhibitor, partial curve]",
COc1ccc(C(=O)C2=NN(C(C)=O)CC2c2ccco2)cc1 (stereo not given),inactive,
CCOC(=O)c1cnc2c(C)cc(C)cc2c1Nc1ccc(OCc2ccccc2)cc1,"inconclusive: 3.55 µM [inhibitor, full curve]",
Cc1cccc(NC(=O)/C(=C\c2ccco2)NC(=O)c2ccccc2)c1,"inconclusive: 39.8 µM [inhibitor, single point]",
Cc1ccc2c(c1)c1ncnc(N3CCc4ccccc4C3)c1n2C,"inconclusive: 14.1 µM [inhibitor, partial curve]",
CCCN1C(=O)/C(=c2\sc3nc(=O)c(Cc4ccc(C)cc4)nn3c2=O)c2ccccc21,"inconclusive: 25.1 µM [inhibitor, partial curve]",
Cc1c(N=Cc2ccc(-c3ccc(Cl)cc3)o2)c(=O)n(-c2ccccc2)n1C,"inconclusive: 14.1 µM [inhibitor, partial curve]",
FC(F)(F)c1ccc2c(c1)C1C=CCC1C(c1ccncc1)N2 (stereo not given),"inconclusive: 22.4 µM [inhibitor, partial curve]",
Nc1nc(SC2c3cccc4cccc(c34)C2NS(=O)(=O)c2ccccc2)n[nH]1 (stereo not given),inactive,
COc1ccccc1N1CCN(C(=O)c2ccc([N+](=O)[O-])s2)CC1,"inconclusive: 44.7 µM [inhibitor, single point]",
CC(C)CCNC(=O)c1cc(Sc2ccc(F)cc2F)nc2ccccc12,inactive,
CCNc1ccccc(C(=O)/C=C/c2ccc3c(c2)OCO3)c1=O,active: 14.1 µM,
Cc1cc(C)c2cc(C(c3nnnn3C3CCCC3)N3CCOCC3)c(=O)[nH]c2c1 (stereo not given),"inconclusive: 22.4 µM [inhibitor, single point]",
COCCn1c(C)cc(C2=NNC(=Nc3ccccc3F)SC2)c1C,"inconclusive: 15.8 µM [inhibitor, partial curve]",
O=c1nc2cccc3c2=c(/c1=C(\O)c1ccccc1)c1ccccc1c3=O,"inconclusive: 3.16 µM [inhibitor, full curve]",
Cc1cc(/C=C2/NC(=O)N(Cc3ccccc3F)C2=O)c(C)n1C(C)C,"inconclusive: 28.2 µM [inhibitor, single point]",

SMILES,Potency,"activity, negative = inhibition"
COCCn1c(N)c(C(=S)NC(=O)c2cccs2)c(=O)[nH]c1=O,"inconclusive: 35.5 µM [inhibitor, partial curve]",
C=CCc1cccc2cc(C(=O)NC3CCCCC3)c(=O)oc12,"inconclusive: 39.8 µM [inhibitor, single point]",
COc1ccccc1NC(=O)c1ccc(NC(=O)CSc2nnnn2C)cc1,"inconclusive: 31.6 µM [inhibitor, partial curve]",
CS(=O)(=O)c1ccc(C(=O)OCc2nnc(-c3ccccc3)o2)cc1[N+](=O)[O-],"inconclusive: 6.31 µM [inhibitor, partial curve]",
Cc1cc(NC(=O)c2ccc([N+](=O)[O-])cc2Cl)ccc1NC(=O)c1ccco1,"inconclusive: 2 µM [inhibitor, full curve]",
COc1ccc(-n2nc(C(=O)NCc3ccc(F)cc3)c3c4ccccc4n(C)c3c2=O)cc1,inactive,
CN(C)c1ccc(CNC(=O)c2ccc3c(c2)N(C)C(=O)C2CCCCN32)cc1 (stereo not given),"inconclusive: 31.6 µM [inhibitor, single point]",
CCOc1ccccc1N1CC(c2nc3ccccc3n2CCCCOc2cc(C)ccc2C)CC1=O (stereo not given),"inconclusive: 10 µM [inhibitor, partial curve]",
COc1ccc(Cc2nnc(NC(=O)Cc3cccs3)s2)cc1OC,"inconclusive: 39.8 µM [inhibitor, single point]",
Cc1ccc(C(=O)Oc2oc(-c3ccco3)nc2C=Nc2ccc(Cl)cc2)cc1,"inconclusive: 17.8 µM [inhibitor, partial curve]",
CCCOc1ccccc1-c1nc2n[nH]nc2c(=O)[nH]1,"inconclusive: 22.4 µM [inhibitor, partial curve, poor fit]",
Fc1ccccc1C1c2cccn2CCN1C(=S)Nc1ccc(Br)cc1 (stereo not given),inactive,
CC(=O)n1cc([C@H]2C=C(C(=O)N3CCN(Cc4ccccc4)CC3)O[C@@H](OCc3ccc(CO)cc3)C2)c2ccccc21,"inconclusive: 25.1 µM [inhibitor, single point]",
CCOC(=O)c1cnc(Nc2ccc(OCC)cc2)nc1C,"inconclusive: 17.8 µM [inhibitor, partial curve]",
CC1=C(c2ccc(C)c(C)c2)S(=O)(=O)N=C1N1CCC(C(=O)N2CCCCC2)CC1,"inconclusive: 39.8 µM [inhibitor, single point]",
CCn1cc(/C=N/NC(=O)COc2cccc3cccnc23)c2ccccc21,"inconclusive: 10 µM [inhibitor, partial curve]",
CCOc1ccc(C(=O)Nc2ccc(-c3nc4ccccc4[nH]3)cc2)cc1[N+](=O)[O-],"inconclusive: 0.447 µM [inhibitor, full curve]",
CCC(=O)N1c2ccccc2CC1C(=O)NCCc1ccc(OC)cc1OC (stereo not given),inactive,
c1ccc(-c2nc(CSc3n[nH]c(-c4cccs4)n3)cs2)cc1,inactive,
COc1ccc2[nH]c(=O)c(CNc3ccc(C)cc3C)cc2c1,"inconclusive: 28.2 µM [inhibitor, partial curve]",
C#CCCCO/N=C1/C[C@@H](O)[C@@H](O)[C@@H]2[C@@H]3C(=O)N([C@@H](C)c4ccccc4)C(=O)[C@H]3CC[C@@H]12,,inactive: -6.61% [at 11.5 µM]
Cc1ccc(S(=O)(=O)NCCOCCNS(=O)(=O)c2ccc(C)cc2)cc1,inactive,

SMILES,Potency,"activity, negative = inhibition"
CCn1cc(S(=O)(=O)c2ccc(C)cc2C)c(=O)c2cc(F)c(N3CCCC3)cc21,inactive,
Cc1ccc(CSc2nnc3[nH]c(=O)cc(C)n23)cc1,inactive,
O=C(O)c1cc(-c2ccc(N3CCOCC3)cc2)nn1-c1ccccc1Cl,"inconclusive: 15.8 µM [inhibitor, partial curve]",
COc1cc(NC(=O)CSc2ccc(-c3sc(-c4ccccc4)nc3C)nn2)cc(OC)c1,"inconclusive: 1.41 µM [inhibitor, full curve, poor fit]",
COCn1c(-c2ccc(OC)cc2)nc2ccccc21,"inconclusive: 11.2 µM [inhibitor, partial curve]",
C=C(C)C(=O)O[C@H]1C/C(C)=C\C(=O)/C=C(\C)[C@H](O)[C@@H]2OC(=O)C(=C)[C@@H]21,"inconclusive: 3.98 µM [inhibitor, full curve]",
Oc1c(Br)cc(C=Nc2ccc3nc(-c4ccccc4)[nH]c3c2)c(O)c1Br,active: 4.47 µM,
CCS(=O)(=O)Nc1ccc(-c2cc(-c3ccccc3)c3cc(C)ccc3n2)cc1,inactive,
O=C(Nc1cccc(-c2cn3c(n2)SCC3)c1)c1ccc2c(c1)OCO2,"inconclusive: 3.98 µM [inhibitor, partial curve]",
COc1ccc2c(c1)CC/C2=N\OC(=O)c1ccccc1OC,"inconclusive: 0.447 µM [inhibitor, full curve]",
Cc1ccccc1OCC(=O)Nc1ccc(Cc2ccncc2)cc1,inactive,
CCn1c(CNc2ccc(OC)cc2)nnc1SCC(=O)N1CCCc2ccccc21,"inconclusive: 15.8 µM [inhibitor, partial curve]",
Cc1cccn2c(=O)c(/C=C(\C#N)c3nc4ccccc4n3C)c(Oc3ccc(Cl)cc3)nc12,"inconclusive: 28.2 µM [activator, partial curve]",
Cc1ccc(NC(=S)NCc2ccc3c(c2)OCO3)c(C)c1,inactive,
COc1cc(OC)cc(C(=O)NC2CCN(CC(=O)Nc3cccc4ccccc34)CC2)c1,"inconclusive: 11.2 µM [inhibitor, partial curve]",
O=C(O)COc1ccccc1/C=C1\SC(=S)N(c2cccnc2)C1=O,"inconclusive: 22.4 µM [inhibitor, partial curve]",
O=C(Nc1cccc(C(F)(F)F)c1)N1CCN(C(=O)Nc2cccc(C(F)(F)F)c2)CC1,inactive,
Cc1ccccc1COc1ccc(/C(O)=C2/C(=O)C(=O)N(CCCn3ccnc3)C2c2ccco2)cc1 (stereo not given),"inconclusive: 4.47 µM [inhibitor, partial curve]",
O=C(/C=C/Nc1ccccc1C(F)(F)F)c1ccco1,"inconclusive: 14.1 µM [inhibitor, partial curve]",
N#Cc1sc2nc(-c3ccccc3)cc(-c3ccco3)c2c1N,"inconclusive: 5.01 µM [inhibitor, full curve]",
COc1cccc(CNC(=O)CCc2c(C)nn(-c3ccc(N4CCOCC4)nn3)c2C)c1,inactive,
